The other results are listed elsewhere or left out. Single values are uncertain, as repeats are few or missing.
Experiments:
Test in all cases: cell count relative to DMSO control; melanoma cells; higher = more viable cells
Settings in all cases: library dose: low library concentration; 72 h
[1] = tested on: MZ2-MEL
[2] = tested on: MeWo
[3] = tested on: RPMI7951
[4] = tested on: RVH-421
[5] = tested on: SkMel28
[6] = tested on: SkMel2
[7] = tested on: SkMel30
[8] = tested on: SkMel5
[9] = tested on: UACC257
[10] = tested on: UACC62
[11] = tested on: WM115
[12] = tested on: WM1716
[13] = tested on: WM1745
[14] = tested on: WM3526
[15] = tested on: WM3619
[16] = tested on: WM451Lu
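Further: cell number obtained by counting DAPI-stained nuclei in high-throughput microscope images with image analysis software, screen run in 1,536-well plates.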

Row | Compound | cell count [1] [%] | cell count [2] [%] | cell count [3] [%] | cell count [4] [%] | cell count [5] [%] | cell count [6] [%] | cell count [7] [%] | cell count [8] [%] | cell count [9] [%] | cell count [10] [%] | cell count [11] [%] | cell count [12] [%] | cell count [13] [%] | cell count [14] [%] | cell count [15] [%] | cell count [16] [%]
1 | CNC(=O)c1cc(Oc2ccc(NC(=O)Nc3ccc(Cl)c(C(F)(F)F)c3)cc2)ccn1 [sorafenib] + COc1ccc2c(c1)CCC1C2CCC2(C)C(NCCCCCCN3C(=O)C=CC3=O)CCC12 [U73122] (first compound 0.4 µM, partner dose 0.4 µM) | 91.2 | 112 | 75.1 | 92.5 | 106 | 99.2 | 77.2 | 80.8 | 107 | 85.7 | 91.4 | 76.1 | 104 | 97.4 | 85.6 | 101
2 | CNC(=O)c1cc(Oc2ccc(NC(=O)Nc3ccc(Cl)c(C(F)(F)F)c3)cc2)ccn1 [sorafenib] + O=C(O)C(=O)Nc1sc2c(c1C(=O)O)CCNC2 [TCS401] (first compound 0.4 µM, partner dose 1.66667 µM) | 93.4 | 105 | 83.6 | 88.1 | 105 | 102 | 94.5 | 97.9 | 95.3 | 85.1 | 100 | 70.7 | 91.5 | 89.5 | 94.2 | 96.4
3 | CS(=O)(=O)CCNCc1ccc(-c2ccc3ncnc(Nc4ccc(OCc5cccc(F)c5)c(Cl)c4)c3c2)o1 [lapatinib] + C[C@@H]1CCN(C(=O)CC#N)C[C@@H]1N(C)c1ncnc2[nH]ccc12 [CP690550] (first compound 0.8 µM, partner dose 1 µM) | 98.8 | 97.4 | 96.3 | 97 | 105 | 98.6 | 104 | 98 | 101 | 113 | 99.5 | 102 | 102 | 93.9 | 101 | 106
4 | CS(=O)(=O)CCNCc1ccc(-c2ccc3ncnc(Nc4ccc(OCc5cccc(F)c5)c(Cl)c4)c3c2)o1 [lapatinib] + Cc1cc(N2CCOCC2)cc2[nH]c(-c3c(NC[C@@H](O)c4cccc(Cl)c4)cc[nH]c3=O)nc12 [BMS536924] (first compound 0.8 µM, partner dose 0.2 µM) | 97.7 | 82.8 | 109 | 114 | 83.6 | 90.7 | 94.7 | 85.2 | 83.1 | 89.3 | 90.6 | 118 | 73.7 | 91 | 94.4 | 109
5 | CS(=O)(=O)CCNCc1ccc(-c2ccc3ncnc(Nc4ccc(OCc5cccc(F)c5)c(Cl)c4)c3c2)o1 [lapatinib] + CC(C)CCN1c2nc(Nc3cc(F)c(O)c(F)c3)ncc2N(C)C(=O)C1C [BID1870] (first compound 0.8 µM, partner dose 0.2 µM) | 104 | 76.9 | 87.2 | 90.3 | 71.8 | 87.9 | 96 | 83.7 | 60.6 | 99.9 | 85.9 | 117 | 90.3 | 82 | 84.7 | 100

From the supplement of paper PMC4604168 (melanoma cell lines)
